Results reported in US7592316B2, “Peptides as NS3-serine protease inhibitors of hepatitis C virus” (Schering Corporation, priority 2000, dated 2009).
Several values for one entry are separate records, joined by “and”; a condition that tells them apart may be missing. Equal entries are not always repeated. *1 amine or outer side, *2 acyl side, *3 side chain or, on linkers, in order; H or OH if unused. Where a SMILES comes first, the peptide text is derived from it. [ ]: non-standard residue; d: D form. The star is where a group is joined. ξ: configuration not given here. Leuψ(COCO) = CC(C)C[C@H](N[*:1])C(=O)C(=O)[*:2]; Phenylacetyl(3-CF3) = O=C(Cc1cccc(C(F)(F)F)c1)*; Pro(5R-Ph) = O=C(O)[C@@H]1CC[C@H](c2ccccc2)N1; Pro(4,4-Me2) = CC1(C)CN[C@H](C(=O)O)C1; Pro(4S-Me) = C[C@@H]1CN[C@H](C(=O)O)C1; Pro(4R-Me) = C[C@H]1CN[C@H](C(=O)O)C1; X12 = CCC[C@H](N[*:1])C(=O)C(=O)[*:2]; Benzoyl(2,6-F2) = O=C(c1c(F)cccc1F)*; Cyclohexanecarbonyl = O=C(C1CCCCC1)*; Isobutyloxycarbonyl = CC(C)COC(=O)*; X87 = O=C(c1ccccc1)c1ccccc1C(=O)*; Hyp = O=C(O)[C@@H]1C[C@@H](O)CN1; X2 = CCCC(N[*:1])C(=O)C(=O)[*:2]; CH2CO2tBu = CC(C)(C)OC(=O)C*; Chg = N[C@H](C(=O)O)C1CCCCC1; Phg = N[C@H](C(=O)O)c1ccccc1; Tle = CC(C)(C)[C@H](N)C(=O)O; X66 = O=C(C1CC1c1ccccc1)*; ξChg = NC(C(=O)O)C1CCCCC1; ξPhg = NC(C(=O)O)c1ccccc1; Carboxymethyl = O=C(O)C*; Orn = NCCC[C@H](N)C(=O)O; X78 = O=C(Cc1cccc(F)c1)*; ξNle = CCCCC(N)C(=O)O; ξPip = O=C(O)C1CCCCN1; ξV = CC(C)C(N)C(=O)O; Bn = c1ccc(C*)cc1; OtBu = CC(C)(C)O*; ξS = NC(CO)C(=O)O; tBu = CC(C)(C)*; OAll = C=CCO*

Target: HCV NS3/NS4A protease (strain 1a) (Hepatitis C virus genotype 1a, UniProt P27958)
Experiment: biochemical
Conditions: Compounds prepared by Solid Phase Synthesis, Table 3; read-out: Ki* CLASS

| SMILES | Ki [µM] |
| --- | --- |
| CCCC(NC(=O)[C@@H]1C[C@@H](OCC(=O)O)CN1C(=O)C(NC(=O)OCC(C)C)C(C)C)C(=O)C(=O)NCC(=O)NC(COCc1ccccc1)C(N)=O (some centres unmarked) (Isobutyloxycarbonyl-[ξV][Hyp](Carboxymethyl)[X2]G[ξS](Bn)-NH2) | > 1 |
| CCCC(NC(=O)[C@@H]1C[C@@H](OCc2ccccc2)CN1C(=O)[C@H](CCCNC(C)=O)NC(=O)OCC(C)C)C(=O)C(=O)NCC(=O)N[C@H](C(N)=O)c1ccccc1 (some centres unmarked) (Isobutyloxycarbonyl-[Orn](Ac)[Hyp](Bn)[X2]G[Phg]-NH2) | > 1 |
| CCCC(NC(=O)[C@@H]1C[C@@H](OC(C)(C)C)CN1C(=O)[C@@H](NC(=O)c1c(F)cccc1F)C1CCCCC1)C(=O)C(=O)NCC(=O)NC(C(N)=O)c1cc(C)cc(C)c1 (some centres unmarked) | 0.101 to 1 |
| CCCCC(NC(=O)CNC(=O)C(=O)C(CCC)NC(=O)[C@@H]1C[C@@H](OCC(=O)OC(C)(C)C)CN1C(=O)C(NC(=O)Cc1cccc(F)c1)C1CCCCC1)C(N)=O (some centres unmarked) (X78-[ξChg][Hyp](CH2CO2tBu)[X2]G[ξNle]-NH2) | > 1 |
| CCCCC(NC(=O)CNC(=O)C(=O)C(CCC)NC(=O)[C@@H]1C[C@@H](OC(C)(C)C)CN1C(=O)C(NC(=O)Cc1cccc(C(F)(F)F)c1)C1CCCCC1)C(N)=O (some centres unmarked) ({Phenylacetyl(3-CF3)}-[ξChg][Hyp](tBu)[X2]G[ξNle]-NH2) | 0.101 to 1 |
| CCCC(NC(=O)[C@@H]1C[C@@H](OCc2ccccc2)CN1C(=O)[C@H](CCCNC(=O)C1CCCCC1)NC(=O)OCC(C)C)C(=O)C(=O)NCC(=O)N[C@H](C(N)=O)c1ccccc1 (some centres unmarked) (Isobutyloxycarbonyl-[Orn](Cyclohexanecarbonyl)[Hyp](Bn)[X2]G[Phg]-NH2) | > 1 |
| CCCC(NC(=O)[C@@H]1C[C@@H](OCc2ccccc2)CN1C(=O)C(NC(=O)c1ccccc1C(=O)c1ccccc1)C1CCCCC1)C(=O)C(=O)NCC(=O)NC(C(N)=O)c1ccccc1 (some centres unmarked) (X87-[ξChg][Hyp](Bn)[X2]G[ξPhg]-NH2) | > 1 |
| CCCCC(NC(=O)CNC(=O)C(=O)C(CCC)NC(=O)[C@@H]1C[C@@H](OCc2ccccc2)CN1C(=O)C(NC(=O)C1CC1c1ccccc1)C1CCCCC1)C(N)=O (some centres unmarked) (X66-[ξChg][Hyp](Bn)[X2]G[ξNle]-NH2) | > 1 |
| CCCC(NC(=O)[C@@H]1C[C@@H](OC(C)(C)C)CN1C(=O)[C@@H](NC(=O)c1c(F)cccc1F)C1CCCCC1)C(=O)C(=O)NCC(=O)N[C@H](CC(=O)OC(C)(C)C)C(N)=O (some centres unmarked) ({Benzoyl(2,6-F2)}-[Chg][Hyp](tBu)[X2]G[dD](OtBu)-NH2) | > 1 |

Same assay, conditions: HCV protease continuous assay results, Table 1; read-out: Ki* Range

| SMILES | Ki [µM] |
| --- | --- |
| CCCCC(NC(=O)[C@@H]1[C@@H]2[C@H](CN1C(=O)[C@@H](NC(=O)OC(C)(C)C)C(C)(C)C)C2(C)C)C(=O)C(=O)NCCOC (some centres unmarked) [Example 362] | > 1 |
| CCCC(NC(=O)[C@@H]1CCCN1C(=O)[C@@H](NC(=O)OCC(C)C)C(C)C)C(=O)C(=O)NCC(=O)N1CCCCC1C(=O)O (some centres unmarked) [Example 21] (Isobutyloxycarbonyl-VP[X2]G[ξPip]-OH) | > 1 |
| C=CCOC(=O)CNC(=O)C(=O)C(CCC)NC(=O)[C@@H]1CCCN1C(=O)[C@@H](NC(=O)[C@@H](N)C(C)C)C(C)C (some centres unmarked) [Example 36] (H-VVP[X2]G-OAll) | > 1 |
| C=CCOC(=O)CNC(=O)C(=O)C(CCC)NC(=O)[C@@H]1C[C@@H]2CCCC[C@@H]2N1C(=O)OC(C)(C)C (some centres unmarked) [Example 39] | > 1 |
| CCC[C@H](NC(=O)[C@@H]1C[C@@H](C)CN1C(=O)[C@@H](NC(=O)OCC(C)C)C(C)(C)C)C(=O)C(=O)NCC(=O)NC(C(=O)N(C)C)c1ccccc1 (stereo partly drawn) [Example 262] (Isobutyloxycarbonyl-[Tle][Pro(4R-Me)][X12]G[ξPhg]-NMe2) | 0.001 to 0.1 |
| C=CCNC(=O)C(=O)[C@H](CCC)NC(=O)[C@@H]1CCCN1C(=O)[C@@H](NC(=O)O[C@H]1C[C@@H](C)CC[C@@H]1C(C)C)C(C)C [Example 29] | > 1 |
| CCCC(NC(=O)[C@@H]1C[C@H](C)CN1C(=O)[C@@H](NC(=O)OCC(C)C)C(C)(C)C)C(=O)C(=O)NCC(=O)NC(C(=O)N(C)C)c1ccccc1 (stereo partly drawn) [Example 264] (Isobutyloxycarbonyl-[Tle][Pro(4S-Me)][X2]G[ξPhg]-NMe2) | 0.101 to 1 |
| CCCC(NC(=O)[C@@H]1CC(OC(C)(C)C)CN1C(=O)C(NC(=O)OC(C)(C)C)C(C)(C)C)C(=O)C(=O)NCC(=O)NC(C(=O)N(C)C)c1ccccc1 (some centres unmarked) [Example 325] | 0.001 to 0.1 |

Same assay, conditions: Table 4; HCV NS3/NS4A protease, spectrophotometric assay, 30° C., pH 6.5; read-out: Ki* Range

| Ki | SMILES |
| --- | --- |
| 0.101 to 1 µM | CCCC(NC(=O)C1C[C@@H](NS(=O)(=O)c2ccc(Cl)c(Cl)c2)CN1C(=O)[C@@H](NC(=O)OCC(C)C)C1CCCCC1)C(=O)C(=O)NCC(=O)N[C@H](C(N)=O)c1ccccc1 (some centres unmarked) |
| 0.001 to 0.1 µM | CCCC(NC(=O)[C@@H]1C[C@@H](NS(=O)(=O)c2ccccc2)CN1C(=O)[C@@H](NC(=O)c1c(F)ccc(F)c1C(=O)O)C1CCCCC1)C(=O)C(=O)NCC(=O)N[C@H](C(N)=O)c1ccccc1 (some centres unmarked) |
| 0.101 to 1 µM and > 1 µM | CCCC(NC(=O)C1C[C@@H](NC(=O)Nc2ccc(Cl)cc2)CN1C(=O)[C@@H](NC(=O)OCC(C)C)C1CCCCC1)C(=O)C(=O)NCC(=O)N[C@H](C(N)=O)c1ccccc1 (stereo in doubt) |

| SMILES | Ki |
| --- | --- |
| CC(C)COC(=O)N[C@H](C(=O)N1CC(C)(C)C[C@H]1C(=O)N[C@@H](CC(C)C)C(=O)C(=O)NCC(=O)N[C@H](C(=O)N(C)C)c1ccccc1)C1CCCCC1 (Isobutyloxycarbonyl-[Chg][Pro(4,4-Me2)][Leuψ(COCO)]G[Phg]-NMe2) | 0.001 to 0.1 µM |
| CCCC(NC(=O)[C@@H]1CC[C@H](c2ccccc2)N1C(=O)[C@@H](NC(=O)OCC(C)C)C1CCCCC1)C(=O)C(=O)NCC(=O)NC(C(=O)O)c1ccccc1 (stereo partly drawn) (Isobutyloxycarbonyl-[Chg][Pro(5R-Ph)][X2]G[ξPhg]-OH) | 0.101 to 1 µM |

Same assay, conditions: Table 5; HCV NS3/NS4A protease, 30° C., pH 6.5; read-out: Ki* Range

| Ki [µM] | SMILES |
| --- | --- |
| 0.101 to 1 | C=CCNC(=O)C(=O)C(CCC)NC(=O)[C@@H]1[C@@H]2[C@H](CN1C(=O)[C@@H](NC(=O)OC1CCC(C)C1)C(C)(C)C)C2(C)C (some centres unmarked) |
